± gives the standard deviation of the averaged measurements. Whole data set: some 4,100 sequences, median “arbitrary fluorescence units” near 780, cut for the highest 2% near 22,000. Some of the results follow.
Molecular target: T1, ETS1 (UniProt P14921)
T1 sequence: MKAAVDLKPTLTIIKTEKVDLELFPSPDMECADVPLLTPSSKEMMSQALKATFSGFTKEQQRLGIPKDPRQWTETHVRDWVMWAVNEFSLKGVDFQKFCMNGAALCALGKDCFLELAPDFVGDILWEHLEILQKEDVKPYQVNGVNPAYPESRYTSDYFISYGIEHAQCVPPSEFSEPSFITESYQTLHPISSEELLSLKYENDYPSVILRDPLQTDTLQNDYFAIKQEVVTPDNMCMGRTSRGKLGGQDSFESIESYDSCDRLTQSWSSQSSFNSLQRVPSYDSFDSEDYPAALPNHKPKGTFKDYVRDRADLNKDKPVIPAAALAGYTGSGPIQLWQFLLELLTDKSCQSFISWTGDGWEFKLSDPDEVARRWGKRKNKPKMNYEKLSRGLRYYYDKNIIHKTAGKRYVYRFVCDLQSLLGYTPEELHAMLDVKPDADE
Test: ETS1 binding intensity (PBM fluorescence), ETS1 alone (arbitrary fluorescence units); higher = stronger binding
Settings: ETS1 concentration 1 nM; RUNX1 concentration 0 nM
In short: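 Full-length recombinant human ETS1 (1 nM, no RUNX1) was incubated, per standard PBM protocols, on double-stranded Agilent 4 × 180k arrays of 36-bp genomic probes whose RUNX1 partner site was mutated. Bound ETS1 was detected with anti-ETS1 antibody (Cell Signaling Technology 14069) and Alexa488-conjugated secondary antibody, then scanned on a GenePix 4400A. Binding level is spot fluorescence intensity, summarised over replicate spots (four printed per sequence) and not normalised.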

Sequence | ETS1 binding intensity
CCTTGCTTCCTTCGGTGCAACCAGCGGGAATCCCAT | 1380
GCCAACGCGCCCGGCCAAGCCTTTACTTCCTTTTAC | 493
TTTGCTGTGATTATGACTTTCAACATACTTCCTGCT | 867
GGGCTTATCTAGCGACAGCAGAACATCCTGCTCTGG | 1170
TGTGTTAGTGGATTTCTCTTACGGCAGGAAGTGGGC | 846
CAGGGCCCGGCATCCGCGCCATGGAACGCGCAGCTT | 675
TGGATTAGCCGCTAAACATAGTTTCCTGTTGTGTAA | 1890
GACAAACATACCCCTAGGACAGGATGTGAAATCCAC | 1310
CCACACCTACAAGGCCAGCCTCACTTCCTCACTCCT | 657
TTTGGGGCTCAAAATCACAGAGAAGCTTCCTATTGT | 329
CTTGCCACACTTCCTCTTGTTTTGAACCTCTATATT | 5040
CCCGCCACTTCCCTGCCTCTTCGGGAGCCCCCCAGC | 1560
CTGCGTTTCCTCTGAGTTTTGCATGTTGACGTTGGA | 3090
CGTCGTCTGGGAATCCGCCGACTTCCGGCCGCGCAG | 15200
AGCGGCCAGGCCGCTGAGCCGGCCCCTTCCGCTTTA | 573
GAGGGAAGGGAACCGGCGCCGCCGGAAGGAGCCGCT | 948
CCTTCCTCCGCTTTCGGTGCCTGTTTCCGCCTCCAA | 1720
TTGTGCTTCCTGCTCATGAGATTGCTAGCGGCTACT | 6410 ± 700
CTGCCCATCGCTGTTAACTTTTCCGCCTCCTTAAAG | 492
GAAGTGGACACGGAACTCGGCTGCAGCTCCATGGTC | 342
CCTCCCTCCGCTCGCCTTCTTCCCGGAAGCTAAGTT | 640
TGCAGGGAGCGCCTACAAAGGGAGGATGTCGCCGGC | 345
TCTCGTCCGGTCCTTGCTCCCCCTCCCCTCAGCGCT | 5380
TTTTCCGACGGAAGCCTTACTGCCCCAAACGTCACT | 1260
CCCTGCCGTCGAGGTGCACTCTGGGAAATGTGATTT | 405

Sequence | ETS1 binding intensity
AGCTCCACCGGAAACGGCCTGGCCGAAGCCAATCAG | 20000
TGCTTAGCGGGAAGTGCTTACACCCCAAAACAAGAC | 6200
GACGCCCTATTCGGGAGCCGGATGGGCGTAACGGGG | 550
GCCTTCTGGGAAATGTAGTTCCCCGTCACCGTGAAG | 351
AAGTGAGGCGGCTACCTCGGCGCCTTTTCCGGCAGC | 396
TTAGACGAGGCTCTGGCTACCGGAAAGAGCGCAGGC | 838
AAGCCCTCAGCCCGGCCCCGGCCCCCGGATGTGGGG | 467
TTACGACACTTCCGGCGACGCCCCTCAGCCTTCACC | 17500
AGAGGCTTCCTGAGGAACTGGTGTTGTCAGGGGAGC | 1620
GCCCCGGAAGTGGCCCGGCTGTTGGCCGAAGCGGGA | 8010
TTTCTCTGGCCGGGGAAATTGAGGTCACTTCCTGTC | 4180
CCTCACAGGGACTTCCTTCCCCGCTGTTCAGGAATC | 2330
CTCCAAGCCCAGAGAGCACCCCTTCCTGCCCGGACA | 737
TCTCTTTGGTGGATTCTTCTTTATCTTCCTGGCTAG | 552
AGCTTGCTTCCTGTCCCCAAAACTCACAGCACACGG | 15500
GCCTCCTCAGGAAATTGCCCAAAATAGCGACATGTT | 1420
CTTCTGGCCGTAAGGCGCCAGCGCTTCCGGGCCCCA | 1270
TTGGTGCTTAGACCTGGGGAGGGGCAGGATGTGGCA | 698
TGGAACCATCACCCTCAACCAGAGGAAACTGTCTGG | 436
GCCAACAGGAAGCTGGAAGCCAAACGCACTGTGTGC | 3500
ATAGTGCAGTGAGCCAACATGGGGGAAATGCCTGGA | 415
GCGCAAGGAAGGACTGCAAGGAGGCCGAAGGTTAAA | 326
AAAATCACATTGCCTGTGCTGCAGGCCGGAAAGCTG | 339
GCCAAGAGGGAGACGGCGTGCCTTTCCTGCAGCCGA | 331
GGTTTCACTTCCTGCGTTGGGCCTTGTAGCCTCCTT | 12700

Sequence | ETS1 binding intensity
GACGGCCGCTTTTGGCGCGGGACTTCCTGCCTGGCC | 3070
GTGCGCCTACGGCGGCGACGAAACCGGAAGACAAGC | 1690
TCCGCCGAAACCCGACTGGGAGGTGGCGGAACGACT | 326
GAATGACAGGAAGATGATTAGTGATAGTGGATTTGG | 991
GCCGTGAATGCGAGCTCTCCTGCCGGAAGCTGCCCC | 883
AGCGAGCGGAACAAGCTGGCGGCGGCCAAGTGCAGG | 469
GCAGGAAGCAGGTGGCAGGGAGTGGACCTACAGCAT | 600
CTGGCGGACAGCGGCGCACTTCCGTAGAGGTGGACA | 1930
GCTAGACAGGAAACAGTGAGCTTCTGTGAGCAGGAG | 4180
GTGGTCGGGAGGGGAAGTGAGGCGGCTACCTCGGCG | 879
GTGTTTATCACACGCGGGCCCTCAGGAAGTGCATCA | 452
CTTGGCTTATTCTGGGAGCCACTTCCCTGGCTTTCA | 338
CTCCACCGGATGCAGCAATGAAGGCCGTAGGAATGG | 8440
GACAGGAAGCCCGCGGCAGCCTCCGAGGTTGCAGAT | 2230
AGTGCTGTAGTTTGACTTTGTTTTTCCTGTAGCCAG | 494
GCCACACTTCCGGCGGGGCTGCGACTGCAGAGGGGC | 38700
AACGGACCCGGAAGGGGCAGGTCTTGTGAGCGGGTC | 912
TCTTTAGTGTAGTTTTGGTAGGAAGGAAAGTAGTTT | 583
GTGAGAGGAAGTGGGCGCTGGTTTAATGTGCTCAGC | 1900
GGCCAGGCGCTGCAGGCAGTCATTTCCTTAGCAACT | 495
AATCATTTCCTGCCCTAACGTTTTTGGTCTGCCTAG | 21400
CCGCTAGCCTGCAGCGCTCGGCTTCCTGGTAATTCT | 448
AGCCATCCTGATAGGAGATCCTCCCACCCCAGCTGA | 821
TCACAATCGCTCACAAAGACAGGAAGTAACTGTCAG | 3450
TCGGGCTGCCGAAGAGCAGCTATTTCCTGTCTGCAC | 5010

Sequence | ETS1 binding intensity
CGGGCCCGTAGATATCACACGCACCCGGAAGTCCTC | 822
AAGCCAGGATACCGAAGCCCTGCAGGATGTGACTCA | 672
GCTGCACCTCACGGACAGGGACCCGGATGGAAAGCT | 346
GCCAAGGCCTTCCGCCGAGTTGGCTTTTGGGTTGTT | 898
GCGCCCCGCTTCCGGGGCCGCCCTAAACGGCGGCCG | 10100
AGTGGATAGCACTTCCTTCTCTTACGACAGTTCCTT | 2450
GAACCTTGGCGCGGCGACGCTAGTTTCCGGCGGGCT | 1270
GAGCGCGGAACTCGCCACGGTAAGGATTACGACAGG | 403
AGACAAAGTGCTTGTAAGCCACTTCCTCCACACCCT | 1130
CATCTCGGAAACGGACAGCAAGATCGCGCATTAACA | 431
AACCCAGGCTTCCTGACTCGCCGTCTTGTTATCAGT | 1310
CTGCCTTGCTTTTCCGGTCGCCGCTGTCCTCTGCGC | 6060
GCCTTACTGCCCCAAACGTCACTTCCTTCGGCCGCT | 949
ACGCCGCGCATCCGCGCTTTACGGCGGGCGCCAAAT | 1580
CCCCGGAACCGAAGGCCACCTCTTGGGGCTGCGAGC | 400
CCTTCAGGCCGCTGCGCGGGGCACGCCGGGAAGCGC | 305
GACTGCGCCGGACGCGCCAGCCCTGCGCGATGACGT | 678
CGTGGCCGGAAAGCTCTCAGCGGCGAGCACCGAGGG | 715
TCTTGCTGGTACTGCTGCACAGCAGGAAGTGGAAAC | 1140
ACTGATAACAAGACGGCGAGTCAGGAAGCCTGGGTT | 408
GAAGCCCCGAAATTATTGGGGGGCTTCCTCCCGCGC | 393
CGTGTGAGGGGGCGCAAGGCAGCGGCAGCTTCCGCC | 830
GGCGTCACATGACCATGAACACTCTTCCGCTACGGC | 575
TACCTACAGGAAATGAGACACACCTCAGGCCGATCC | 5550
TGTATGTTTCGTGGGGGCGGAAGTGGAGTGAAAGAC | 3560

Sequence | ETS1 binding intensity
GCTCAAACAATAAGCACAACACTTCCTGCCTCTCTC | 4230
TTTAACCTTCGGCCTCCTTGCAGTCCTTCCTTGCGC | 385
CCGGGTGGCCATAAACATCACCCGGAAGCCTGAATA | 4450
CTCGGCCAACGCGTGCTCCACTCGGAAGTGGTGCCG | 457
CCTGTCCTGATCGCGGCGAATAACATTTCCTACAGC | 596
AGCCCGCCGGAAACTAGCGTCGCCGCGCCAAGGTTC | 3100
CAAAGCTACCAAAAAGCTACCAGAGAACGGAAGAGA | 442
AGAACGGCAGGGGTTTCCAGGATGGTCTGGAGGAGG | 400.8 ± 3.1
GTGGCTTTGGGGTTCCTTGTTTCCTGGGCTGGTCTG | 489
TCCGCTTCTGTTGTCTGATCTTCCTGGGGCTGAACC | 386
TAAGAAGCTCCAGCAGCAGGCACGGAAATAAACAGC | 380
TGCAAAAAAACAGGAAACACCCAGCCGTAAATTATA | 1830
CTACCGGAAATGCAGCACCACGTAAAATGCGCTCGG | 18100
AGCTGGGGTAGGGGGCAGAACCGGGAACCGGATGTT | 4510
CGGAGGCGCGATTTCCAAGCACGGAAACCTTCAGCC | 357
CAGCTAGAGGAAGCGCTTCGCCCGCGAACCCCAGGG | 1380
CCAACACGGATACAAAAAATATCTCTCTACCTCACT | 677
CAGATTTCCGGCTTCTGAGGAGCTGCCCTACCCCAG | 38200
ATGAAAGGACCAAAAAGCCTCAGACAGGAAGCTGCA | 839
CTTTGCAGGGAATAACTTGGGGTTTCCTGTCTTGAT | 1340
TGCAACGCCGGAATCGCGCAAGCCGCCGGTGCACGT | 342
GCTAAGAGCAGGAAATGATCTGGGAACCTCCATCAC | 4150
CCGGGAAACACGGGAGAGCGACCGAAATCGCAATCA | 424
CCTTGCTGCAGGATGCTCTAACTACAAGCCCAGGAG | 602
GGCGGGGGAGGCGGGTCGGGAAGTAGTGCCGGGTGC | 1090
